In paper PMC9911399, “Two distinct binding modes provide the RNA-binding protein RbFox with extraordinary sequence specificity”:
Numbering of substitutions follows the chain as printed; changes in the protein carry UniProt numbers. The list shows a part of the results.

T1: RBFOX1 RRM RbFoxmut (Fox-RRM*) (Homo sapiens, UniProt Q9NWB1 109-208, R118D;E147R;N151S;E152T)
T1 sequence: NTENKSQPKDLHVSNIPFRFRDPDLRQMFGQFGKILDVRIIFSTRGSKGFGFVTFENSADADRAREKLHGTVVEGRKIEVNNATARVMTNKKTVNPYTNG

B1: GUUGGGG (DNA:RNA)
RNA: GGGAGACCGGAAUUCAGAUUGUCCGUUGGGGUUAAAUCCCGUCGUAGCCACCA
DNA 1: CAATCTGAATTCCGGTCTCCC
DNA 2: TGGTGGCTACGACGGGATT
B2: UUGGCCU (DNA:RNA)
RNA: B1 RNA with G25U, U27G, G29C, G30C, G31U
DNA 1: CAATCTGAATTCCGGTCTCCC
DNA 2: TGGTGGCTACGACGGGATT
B3: GAUACAC (DNA:RNA)
RNA: B1 RNA with U26A, G28A, G29C, G30A, G31C
DNA 1: CAATCTGAATTCCGGTCTCCC
DNA 2: TGGTGGCTACGACGGGATT
B4: CUCCGUU (DNA:RNA)
RNA: B1 RNA with G25C, U27C, G28C, G30U, G31U
DNA 1: CAATCTGAATTCCGGTCTCCC
DNA 2: TGGTGGCTACGACGGGATT
B5: CUCCGGG (DNA:RNA)
RNA: B1 RNA with G25C, U27C, G28C
DNA 1: CAATCTGAATTCCGGTCTCCC
DNA 2: TGGTGGCTACGACGGGATT
B6: ACACCCU (DNA:RNA)
RNA: GGGAGACCGGAAUUCAGAUUGUCCACACCCUUUAAAUCCCGUCGUAGCCACCA
DNA 1: CAATCTGAATTCCGGTCTCCC
DNA 2: TGGTGGCTACGACGGGATT
B7: ACUUCCG (DNA:RNA)
RNA: B6 RNA with A27U, C28U, U31G
DNA 1: CAATCTGAATTCCGGTCTCCC
DNA 2: TGGTGGCTACGACGGGATT
B8: UGUGUCG (DNA:RNA)
RNA: B1 RNA with G25U, U26G, G29U, G30C
DNA 1: CAATCTGAATTCCGGTCTCCC
DNA 2: TGGTGGCTACGACGGGATT
B9: AAGCACA (DNA:RNA)
RNA: B6 RNA with C26A, A27G, C29A, U31A
DNA 1: CAATCTGAATTCCGGTCTCCC
DNA 2: TGGTGGCTACGACGGGATT
B10: CGAUGCU (DNA:RNA)
RNA: B6 RNA with A25C, C26G, C28U, C29G
DNA 1: CAATCTGAATTCCGGTCTCCC
DNA 2: TGGTGGCTACGACGGGATT
B11: AAUGUUU (DNA:RNA)
RNA: B6 RNA with C26A, A27U, C28G, C29U, C30U
DNA 1: CAATCTGAATTCCGGTCTCCC
DNA 2: TGGTGGCTACGACGGGATT
B12: AAUAGUC (DNA:RNA)
RNA: B1 RNA with G25A, U26A, G28A, G30U, G31C
DNA 1: CAATCTGAATTCCGGTCTCCC
DNA 2: TGGTGGCTACGACGGGATT
B13: UCAAACG (DNA:RNA)
RNA: B6 RNA with A25U, C28A, C29A, U31G
DNA 1: CAATCTGAATTCCGGTCTCCC
DNA 2: TGGTGGCTACGACGGGATT
B14: CUCGAUG (DNA:RNA)
RNA: B1 RNA with G25C, U27C, G29A, G30U
DNA 1: CAATCTGAATTCCGGTCTCCC
DNA 2: TGGTGGCTACGACGGGATT
B15: UCCGUCU (DNA:RNA)
RNA: B6 RNA with A25U, A27C, C28G, C29U
DNA 1: CAATCTGAATTCCGGTCTCCC
DNA 2: TGGTGGCTACGACGGGATT
B16: ACGUUAU (DNA:RNA)
RNA: B6 RNA with A27G, C28U, C29U, C30A
DNA 1: CAATCTGAATTCCGGTCTCCC
DNA 2: TGGTGGCTACGACGGGATT
B17: AAAUCCC (DNA:RNA)
RNA: B6 RNA with C26A, C28U, U31C
DNA 1: CAATCTGAATTCCGGTCTCCC
DNA 2: TGGTGGCTACGACGGGATT
B18: ACUUAGA (DNA:RNA)
RNA: B6 RNA with A27U, C28U, C29A, C30G, U31A
DNA 1: CAATCTGAATTCCGGTCTCCC
DNA 2: TGGTGGCTACGACGGGATT
B19: UCAUAGG (DNA:RNA)
RNA: B6 RNA with A25U, C28U, C29A, C30G, U31G
DNA 1: CAATCTGAATTCCGGTCTCCC
DNA 2: TGGTGGCTACGACGGGATT
B20: GGGUCUU (DNA:RNA)
RNA: B6 RNA with A25G, C26G, A27G, C28U, C30U
DNA 1: CAATCTGAATTCCGGTCTCCC
DNA 2: TGGTGGCTACGACGGGATT
B21: CCAAGAA (DNA:RNA)
RNA: B6 RNA with A25C, C28A, C29G, C30A, U31A
DNA 1: CAATCTGAATTCCGGTCTCCC
DNA 2: TGGTGGCTACGACGGGATT
B22: AGAAGAA (DNA:RNA)
RNA: B6 RNA with C26G, C28A, C29G, C30A, U31A
DNA 1: CAATCTGAATTCCGGTCTCCC
DNA 2: TGGTGGCTACGACGGGATT
B23: AAUAGCC (DNA:RNA)
RNA: B6 RNA with C26A, A27U, C28A, C29G, U31C
DNA 1: CAATCTGAATTCCGGTCTCCC
DNA 2: TGGTGGCTACGACGGGATT
B24: UGCGUAC (DNA:RNA)
RNA: B1 RNA with G25U, U26G, U27C, G29U, G30A, G31C
DNA 1: CAATCTGAATTCCGGTCTCCC
DNA 2: TGGTGGCTACGACGGGATT
B25: CACACUC (DNA:RNA)
RNA: B6 RNA with A25C, C26A, A27C, C28A, C30U, U31C
DNA 1: CAATCTGAATTCCGGTCTCCC
DNA 2: TGGTGGCTACGACGGGATT
B26: UAGAAAC (DNA:RNA)
RNA: GGGAGACCGGAAUUCAGAUUGUCCUAGAAACUUAAAUCCCGUCGUAGCCACCA
DNA 1: CAATCTGAATTCCGGTCTCCC
DNA 2: TGGTGGCTACGACGGGATT
B27: UGACGUA (DNA:RNA)
RNA: B6 RNA with A25U, C26G, C29G, C30U, U31A
DNA 1: CAATCTGAATTCCGGTCTCCC
DNA 2: TGGTGGCTACGACGGGATT
B28: UGAUUUG (DNA:RNA)
RNA: B6 RNA with A25U, C26G, C28U, C29U, C30U, U31G
DNA 1: CAATCTGAATTCCGGTCTCCC
DNA 2: TGGTGGCTACGACGGGATT
B29: UUACAAC (DNA:RNA)
RNA: B26 RNA with A26U, G27A, A28C
DNA 1: CAATCTGAATTCCGGTCTCCC
DNA 2: TGGTGGCTACGACGGGATT
B30: GUGAGCA (DNA:RNA)
RNA: B1 RNA with U27G, G28A, G30C, G31A
DNA 1: CAATCTGAATTCCGGTCTCCC
DNA 2: TGGTGGCTACGACGGGATT
B31: GCUUUGG (DNA:RNA)
RNA: B1 RNA with U26C, G28U, G29U
DNA 1: CAATCTGAATTCCGGTCTCCC
DNA 2: TGGTGGCTACGACGGGATT

target: T1, RBFOX1 RRM RbFoxmut (Fox-RRM*); assay: EMSA; HiTS-Eq, 1 nM pool, 10 min; buffer printed only for the single-RNA assays: 10 mM Tris pH 7.5, 150 mM NaCl, 3.4 mM EDTA, 0.001% NP-40, 30 C; details: tags: His6 N-terminal (pET28a); label: 5' 32P
How it was run: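 Relative association constants, normalised to the cognate motif, were derived by comparing read counts of each RNA species with those of the control reaction. The RNA sequenced was the free fraction, separated by 8% native PAGE after a 10 min equilibration in 50 µL of 1 nM 5′-radiolabelled RNA (7 randomized nucleotides) with increasing concentrations of purified wild-type or mutant RbFox RRM.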

**Q.** With B1 as the binder, how does the binding signal read?
**A.** 0.0886 KA relative to UGCAUGU

**Q.** With B2 as the binder, how does the binding signal read?
**A.** 0.118 KA relative to UGCAUGU

**Q.** B3 was tested. Which binding signal did it give?
**A.** 0.0711 KA relative to UGCAUGU

**Q.** How did the binding signal turn out when B4 was run?
**A.** 0.0962 KA relative to UGCAUGU

**Q.** Which binding signal does the source give for B5 here?
**A.** 0.0565 KA relative to UGCAUGU

**Q.** How did the binding signal turn out when B6 was run?
**A.** 0.0805 KA relative to UGCAUGU

**Q.** How did the binding signal turn out when B7 was run?
**A.** 0.0695 KA relative to UGCAUGU

**Q.** For B8, which binding signal is on record?
**A.** 0.253 KA relative to UGCAUGU

**Q.** For B9, which binding signal is on record?
**A.** 0.0787 KA relative to UGCAUGU

**Q.** B10 was tested. Which binding signal did it give?
**A.** 0.104 KA relative to UGCAUGU

**Q.** With B11 as the binder, how does the binding signal read?
**A.** 0.108 KA relative to UGCAUGU

**Q.** For B12, which binding signal is on record?
**A.** 0.0525 KA relative to UGCAUGU

**Q.** B13 was tested. Which binding signal did it give?
**A.** 0.0791 KA relative to UGCAUGU

**Q.** Which binding signal does the source give for B14 here?
**A.** 0.136 KA relative to UGCAUGU

**Q.** With B15 as the binder, how does the binding signal read?
**A.** 0.0831 KA relative to UGCAUGU

**Q.** B16 was tested. Which binding signal did it give?
**A.** 0.133 KA relative to UGCAUGU

**Q.** With B17 as the binder, how does the binding signal read?
**A.** 0.0603 KA relative to UGCAUGU

**Q.** How did the binding signal turn out when B18 was run?
**A.** 0.174 KA relative to UGCAUGU

**Q.** Which binding signal does the source give for B19 here?
**A.** 0.0917 KA relative to UGCAUGU

**Q.** With B20 as the binder, how does the binding signal read?
**A.** 0.0856 KA relative to UGCAUGU

**Q.** For B21, which binding signal is on record?
**A.** 0.112 KA relative to UGCAUGU

**Q.** With B22 as the binder, how does the binding signal read?
**A.** 0.125 KA relative to UGCAUGU

**Q.** With B23 as the binder, how does the binding signal read?
**A.** 0.0767 KA relative to UGCAUGU

**Q.** How did the binding signal turn out when B24 was run?
**A.** 0.133 KA relative to UGCAUGU

**Q.** With B25 as the binder, how does the binding signal read?
**A.** 0.0347 KA relative to UGCAUGU

**Q.** How did the binding signal turn out when B26 was run?
**A.** 0.0822 KA relative to UGCAUGU

**Q.** B27 was tested. Which binding signal did it give?
**A.** 0.138 KA relative to UGCAUGU

**Q.** How did the binding signal turn out when B28 was run?
**A.** 0.168 KA relative to UGCAUGU

**Q.** How did the binding signal turn out when B29 was run?
**A.** 0.0707 KA relative to UGCAUGU

**Q.** Which binding signal does the source give for B30 here?
**A.** 0.163 KA relative to UGCAUGU

**Q.** With B31 as the binder, how does the binding signal read?
**A.** 0.115 KA relative to UGCAUGU
